Source: the supplement of paper PMC12217912
The list shows a part of the results. The full chains were built here from the parent and the listed change. Inactive controls read about 0.05.

B1: TEV protease; numbered along this chain (parent)
chain: MGESLFKGPRDYNPISSSICHLTNESDGHTTSLYGIGFGPFIITNKHLFRRNNGTLVVQSLHGVFKVKDTTTLQQHLVDGRDMIIIRMPKDFPPFPQKLKFREPQREERICLVTTNFQTKSMSSMVSDTSCTFPSGDGIFWKHWIQTKDGQCGSPLVSTRDGFIVGIHSASNFTNTNNYFTSVPKNFMELLTNQEAQQWVSGWRLNADSVLWGGHKVFMVKPEEPFQPVKEATQL

Variants of: B1
Experiment: raw area under fraction-flipped curve 0-4 h after induction (AUC4h, not background-subtracted), DNA-recorder readout of cleavage of the substrate (dimensionless); higher = more cleavage of the substrate by the protease variant
Conditions: temperature: 34 °C; time window: 0-4 h after rhamnose induction
Method: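 In vivo DNA recorder in E. coli TOP10(DE3) ΔrhaA at 34 °C. Each TEVp single-site mutant (parent TEVp 0) is paired with a single-site variant of the 7-mer TEVs (canonical ENLYFQ|S). The substrate sits between flexible linkers in a Bxb1-sfGFP-TEVs-SsrA fusion, so cleavage stabilises Bxb1 and speeds flipping of a recombination array, read by NGS. The value is the raw area under the fraction-flipped curve over 0-4 h after rhamnose induction (AUC4h), with ≥20 reads per time point. It is not background-subtracted; inactive controls average about 0.047.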
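Further: Bxb1 expression induced with 0.2% (w/v) L-rhamnose at OD600 near 0.5, cultures sampled hourly, flipped fraction per protease–substrate barcode pair counted by paired-end Illumina sequencing.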

MGESLFKGPRDYNPISSSICHLTNESDGHTTSLRGIGFGPFIITNKHLFRRNNGTLVVQSLHGVFKVKDTTTLQQHLVDGRDMIIIRMPKDFPPFPQKLKFREPQREERICLVTTNFQTKSMSSMVSDTSCTFPSGDGIFWKHWIQTKDGQCGSPLVSTRDGFIVGIHSASNFTNTNNYFTSVPKNFMELLTNQEAQQWVSGWRLNADSVLWGGHKVFMVKPEEPFQPVKEATQL [Y34R]
area with substrate ENLCFQS: 0.0589 | area with substrate ENLDFQS: 0.0797 | area with substrate ENLEFQS: 0.0729 | area with substrate ENLFFQS: 0.094 | area with substrate ENLGFQS: 0.0649 | area with substrate ENLKFQS: 0.0735 | area with substrate ENLQFQS: 0.0671 | area with substrate ENLRFQS: 0.0631 | area with substrate ENLSFQS: 0.0532 | area with substrate ENLWFQS: 0.074

MGESLGKGPRDYNPISSSICHLTNESDGHTTSLYGIGFGPFIITNKHLFRRNNGTLVVQSLHGVFKVKDTTTLQQHLVDGRDMIIIRMPKDFPPFPQKLKFREPQREERICLVTTNFQTKSMSSMVSDTSCTFPSGDGIFWKHWIQTKDGQCGSPLVSTRDGFIVGIHSASNFTNTNNYFTSVPKNFMELLTNQEAQQWVSGWRLNADSVLWGGHKVFMVKPEEPFQPVKEATQL [F6G]
area with substrate ENLCFQS: 0.0646 | area with substrate ENLDFQS: 0.059 | area with substrate ENLEFQS: 0.0538 | area with substrate ENLHFQS: 0.0639 | area with substrate ENLKFQS: 0.0786 | area with substrate ENLLFQS: 0.0653 | area with substrate ENLPFQS: 0.0409 | area with substrate ENLWFQS: 0.0533

MGESLFKGPRDYNPISSSICHLTNESDGHTTSLYGIGFGPFIITNKHLFMRNNGTLVVQSLHGVFKVKDTTTLQQHLVDGRDMIIIRMPKDFPPFPQKLKFREPQREERICLVTTNFQTKSMSSMVSDTSCTFPSGDGIFWKHWIQTKDGQCGSPLVSTRDGFIVGIHSASNFTNTNNYFTSVPKNFMELLTNQEAQQWVSGWRLNADSVLWGGHKVFMVKPEEPFQPVKEATQL [R50M]
area with substrate ENLCFQS: 0.066 | area with substrate ENLDFQS: 0.045 | area with substrate ENLEFQS: 0.0598 | area with substrate ENLFFQS: 0.0203 | area with substrate ENLKFQS: 0.0936 | area with substrate ENLMFQS: 0.068 | area with substrate ENLNFQS: 0.0562 | area with substrate ENLVFQS: 0.0727 | area with substrate ENLWFQS: 0.0676

MGESLFKGPRDYNPISSSICHLTNHSDGHTTSLYGIGFGPFIITNKHLFRRNNGTLVVQSLHGVFKVKDTTTLQQHLVDGRDMIIIRMPKDFPPFPQKLKFREPQREERICLVTTNFQTKSMSSMVSDTSCTFPSGDGIFWKHWIQTKDGQCGSPLVSTRDGFIVGIHSASNFTNTNNYFTSVPKNFMELLTNQEAQQWVSGWRLNADSVLWGGHKVFMVKPEEPFQPVKEATQL [E25H]
area with substrate ENLCFQS: 0.0739 | area with substrate ENLDFQS: 0.0612 | area with substrate ENLEFQS: 0.065 | area with substrate ENLFFQS: 0.0736 | area with substrate ENLGFQS: 0.0627 | area with substrate ENLHFQS: 0.0584 | area with substrate ENLKFQS: 0.0766 | area with substrate ENLLFQS: 0.0631 | area with substrate ENLNFQS: 0.0558 | area with substrate ENLPFQS: 0.064 | area with substrate ENLQFQS: 0.0747 | area with substrate ENLSFQS: 0.0634 | area with substrate ENLWFQS: 0.0603

MGESLFKGPRDYNPISSSICHLTNMSDGHTTSLYGIGFGPFIITNKHLFRRNNGTLVVQSLHGVFKVKDTTTLQQHLVDGRDMIIIRMPKDFPPFPQKLKFREPQREERICLVTTNFQTKSMSSMVSDTSCTFPSGDGIFWKHWIQTKDGQCGSPLVSTRDGFIVGIHSASNFTNTNNYFTSVPKNFMELLTNQEAQQWVSGWRLNADSVLWGGHKVFMVKPEEPFQPVKEATQL [E25M]
area with substrate ENLCFQS: 0.0788 | area with substrate ENLDFQS: 0.0556 | area with substrate ENLEFQS: 0.0614 | area with substrate ENLFFQS: 0.0873 | area with substrate ENLGFQS: 0.0634 | area with substrate ENLHFQS: 0.0986 | area with substrate ENLIFQS: 0.122 | area with substrate ENLKFQS: 0.0802 | area with substrate ENLLFQS: 0.0783 | area with substrate ENLMFQS: 0.0684 | area with substrate ENLNFQS: 0.0607 | area with substrate ENLPFQS: 0.0797 | area with substrate ENLRFQS: 0.0616 | area with substrate ENLSFQS: 0.0749 | area with substrate ENLVFQS: 0.0807 | area with substrate ENLWFQS: 0.0701

MGESLFKGPRDYNPISSSICHLTNFSDGHTTSLYGIGFGPFIITNKHLFRRNNGTLVVQSLHGVFKVKDTTTLQQHLVDGRDMIIIRMPKDFPPFPQKLKFREPQREERICLVTTNFQTKSMSSMVSDTSCTFPSGDGIFWKHWIQTKDGQCGSPLVSTRDGFIVGIHSASNFTNTNNYFTSVPKNFMELLTNQEAQQWVSGWRLNADSVLWGGHKVFMVKPEEPFQPVKEATQL [E25F]
area with substrate ENLCFQS: 0.0716 | area with substrate ENLDFQS: 0.0699 | area with substrate ENLEFQS: 0.0567 | area with substrate ENLFFQS: 0.0867 | area with substrate ENLHFQS: 0.0788 | area with substrate ENLKFQS: 0.0785 | area with substrate ENLLFQS: 0.0781 | area with substrate ENLPFQS: 0.0333 | area with substrate ENLRFQS: 0.0762 | area with substrate ENLSFQS: 0.0703 | area with substrate ENLWFQS: 0.0851

MGESLFKGPRDYNPISSSICHLTNESDGHTTSLYGIGFGPFIITNKHLFRWNNGTLVVQSLHGVFKVKDTTTLQQHLVDGRDMIIIRMPKDFPPFPQKLKFREPQREERICLVTTNFQTKSMSSMVSDTSCTFPSGDGIFWKHWIQTKDGQCGSPLVSTRDGFIVGIHSASNFTNTNNYFTSVPKNFMELLTNQEAQQWVSGWRLNADSVLWGGHKVFMVKPEEPFQPVKEATQL [R51W]
area with substrate ENLCFQS: 0.0951 | area with substrate ENLDFQS: 0.06 | area with substrate ENLEFQS: 0.0698 | area with substrate ENLFFQS: 0.0973 | area with substrate ENLGFQS: 0.0659 | area with substrate ENLHFQS: 0.0416 | area with substrate ENLKFQS: 0.0793 | area with substrate ENLNFQS: 0.0664 | area with substrate ENLPFQS: 0.0476 | area with substrate ENLSFQS: 0.0809

MGESNFKGPRDYNPISSSICHLTNESDGHTTSLYGIGFGPFIITNKHLFRRNNGTLVVQSLHGVFKVKDTTTLQQHLVDGRDMIIIRMPKDFPPFPQKLKFREPQREERICLVTTNFQTKSMSSMVSDTSCTFPSGDGIFWKHWIQTKDGQCGSPLVSTRDGFIVGIHSASNFTNTNNYFTSVPKNFMELLTNQEAQQWVSGWRLNADSVLWGGHKVFMVKPEEPFQPVKEATQL [L5N]
area with substrate ENLCFQS: 0.0754 | area with substrate ENLDFQS: 0.0538 | area with substrate ENLEFQS: 0.0521 | area with substrate ENLFFQS: 0.084 | area with substrate ENLIFQS: 0.106 | area with substrate ENLKFQS: 0.0873 | area with substrate ENLLFQS: 0.0673 | area with substrate ENLNFQS: 0.0593 | area with substrate ENLQFQS: 0.0869 | area with substrate ENLRFQS: 0.0991

MGESLFKGPRDYNPISSSICHLTNESDGHTTSLYGIGFGPFIITNKHLFRRANGTLVVQSLHGVFKVKDTTTLQQHLVDGRDMIIIRMPKDFPPFPQKLKFREPQREERICLVTTNFQTKSMSSMVSDTSCTFPSGDGIFWKHWIQTKDGQCGSPLVSTRDGFIVGIHSASNFTNTNNYFTSVPKNFMELLTNQEAQQWVSGWRLNADSVLWGGHKVFMVKPEEPFQPVKEATQL [N52A]
area with substrate ENLCFQS: 0.0651 | area with substrate ENLDFQS: 0.0657 | area with substrate ENLEFQS: 0.0473 | area with substrate ENLFFQS: 0.0655 | area with substrate ENLHFQS: 0.068 | area with substrate ENLKFQS: 0.0651 | area with substrate ENLLFQS: 0.05 | area with substrate ENLNFQS: 0.05 | area with substrate ENLQFQS: 0.0652 | area with substrate ENLRFQS: 0.0671 | area with substrate ENLSFQS: 0.0725 | area with substrate ENLWFQS: 0.0705
